Results from paper PMC4336329 (PLoS ONE, 2015).
The whole screen tested about 310,000 compounds, of which about 14,000 (4.5%) showed an effect of 50% or more. The effect is printed as a negative number. The list shows a part of the results.

Target: human ether-à-go-go-related gene (hERG) potassium channel (human, UniProt Q12809)
Test: primary screen, population patch clamp on CHO cells stably expressing hERG
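Also: peak tail current of the secondary pulse compared with the same well before compound.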

Chain of human ether-à-go-go-related gene (hERG) potassium channel (Q12809 whole entry, looked up): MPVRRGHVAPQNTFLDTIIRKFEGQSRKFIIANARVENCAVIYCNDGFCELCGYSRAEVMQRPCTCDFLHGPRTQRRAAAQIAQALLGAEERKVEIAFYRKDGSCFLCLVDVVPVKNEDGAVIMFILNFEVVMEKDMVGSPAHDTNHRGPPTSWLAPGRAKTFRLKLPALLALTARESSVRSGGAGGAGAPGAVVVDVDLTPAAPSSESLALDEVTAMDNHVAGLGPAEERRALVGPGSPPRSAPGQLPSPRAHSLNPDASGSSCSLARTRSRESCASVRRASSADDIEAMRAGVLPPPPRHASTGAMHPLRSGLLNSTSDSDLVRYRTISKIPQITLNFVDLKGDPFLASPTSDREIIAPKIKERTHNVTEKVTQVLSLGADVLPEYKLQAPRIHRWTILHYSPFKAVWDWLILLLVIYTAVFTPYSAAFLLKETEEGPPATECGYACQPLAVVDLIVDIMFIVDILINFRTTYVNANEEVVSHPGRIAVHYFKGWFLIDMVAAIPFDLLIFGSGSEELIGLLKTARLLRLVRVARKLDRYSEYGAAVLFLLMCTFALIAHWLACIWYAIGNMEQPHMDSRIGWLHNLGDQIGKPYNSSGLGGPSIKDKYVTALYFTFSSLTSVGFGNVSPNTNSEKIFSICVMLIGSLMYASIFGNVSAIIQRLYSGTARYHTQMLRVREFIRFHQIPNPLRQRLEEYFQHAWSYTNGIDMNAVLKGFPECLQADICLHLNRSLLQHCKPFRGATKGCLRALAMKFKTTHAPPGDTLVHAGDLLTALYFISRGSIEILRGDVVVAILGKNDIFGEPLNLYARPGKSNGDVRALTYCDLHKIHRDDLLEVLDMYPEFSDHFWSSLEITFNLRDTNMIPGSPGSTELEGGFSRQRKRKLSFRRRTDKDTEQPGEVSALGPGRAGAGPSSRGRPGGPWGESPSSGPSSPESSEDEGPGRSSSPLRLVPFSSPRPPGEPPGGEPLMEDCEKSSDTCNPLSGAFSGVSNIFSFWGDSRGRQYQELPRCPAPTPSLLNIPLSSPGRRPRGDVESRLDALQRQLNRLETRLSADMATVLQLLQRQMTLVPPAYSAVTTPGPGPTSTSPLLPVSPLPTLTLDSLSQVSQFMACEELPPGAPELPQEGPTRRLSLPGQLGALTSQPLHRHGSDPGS

In order of rising “hERG current change (%, negative = inhibition) at 10uM” value:
1. COc1ccc(-n2c(SCC(=O)NCc3cccs3)nnc2-c2ccoc2C)cc1  -78%
2. O=C(NCCN1CCOCC1)c1cc2sccc2n1Cc1ccc(Cl)cc1  -59.9%
3. Cc1c(CC(=O)N2CCN(C(=O)C3COc4ccccc4O3)CC2)c(=O)oc2cc(O)c(Cl)cc12 (stereo not shown)  -52.4%
4. CC1CCCN(CCCNC(=O)c2ccc(CS(=O)(=O)c3c(Cl)cccc3Cl)o2)C1 (stereo not shown)  -44.8%
5. COC(=O)c1cc(C(=O)N2CCN(c3ccccc3OC)CC2)cc([N+](=O)[O-])c1  -34.7%
6. C=CCN(c1ccccc1)S(=O)(=O)c1cccc(C(=O)NCC(c2ccc(F)cc2)N2CCOCC2)c1 (stereo not shown)  -29.6%
7. Cc1c(NC(=O)CCSc2ccc(Cl)cc2)c(=O)n(-c2ccccc2)n1C  -24.9%
8. Cc1ccccc1Nc1nnc(SCc2cc(=O)n3ccsc3n2)s1  -22.9%
9. Cc1ccc(Cl)cc1NS(=O)(=O)Cc1ccccc1  -17.4%
10. CN(CC(=O)NCc1ccccc1)CC(=O)Nc1ccc(Cl)c(C(F)(F)F)c1  -17.3%
11. Cc1nc(C(=O)Nc2ccccc2)sc1C1(C)CC(c2cccnc2)=NO1 (stereo not shown)  -13.7%
12. CC1(c2nnc(Cc3ccccc3)o2)CC(c2ccccc2F)=NO1 (stereo not shown)  -12.6%
13. O=C(N/N=C/c1ccc[nH]1)c1ccc(Cl)cc1  -11.8%
14. COc1ccc(C(=O)NC(=S)Nc2ccc([N+](=O)[O-])cc2C)cc1OC  -10.6%
15. O=C(NCCSc1ccccn1)c1ccc(Cl)cc1  -10.4%
16. COc1ccc(C2CCCN2C(=S)Nc2cccc(Cl)c2C)cc1OC (stereo not shown)  -10.2%
17. CCOc1ccc(-c2nnc3ccc(SCC(=O)Nc4cc(C)on4)nn23)cc1  -9.97%
18. O=[N+]([O-])c1cccc(-c2cn3nc(-c4ccccc4)c(-c4ccccc4)nc3n2)c1  -9.43%
19. CN(c1ccc([N+](=O)[O-])cc1C(=O)Nc1ccccc1)C1CCCCC1  -9.36%
20. COCc1ccc(CN2CCCC(C(=O)Nc3ccc(-c4cscn4)cc3)C2)o1 (stereo not shown)  -8.25%
21. CCCOC(=O)C1C2C=CC3(CN(c4ccc(Cl)c(F)c4)C(=O)C13)O2 (stereo not shown)  -6.99%
22. CCOC(=O)c1cc(-c2ccccc2)nc2c1c(C)nn2-c1ccccn1  -6.42%
23. O=C(CCC(=O)N1CCCCCC1)NCc1ccc(F)cc1  -5.94%
24. COCCCn1c(SCc2nnc(-c3ccc(OC)c(OC)c3)o2)nnc1-c1ccncc1  -4.8%
25. O=C(Cn1nnc(-c2ccccc2-n2cnnn2)n1)c1ccccc1  -3.97%
26. Cc1nonc1OCCNCc1c(C(=O)N2CCCCCCC2)nc2ccc(Cl)cn12  -3.58%
27. COc1ccc(NC(=O)CCC(=O)Nc2nnc(C(F)(F)F)s2)c(OC)c1  -0.667%
28. O=C(Nc1nnc(C2CC2)s1)C1CCCCC1  -0.526%
29. O=[N+]([O-])c1ccc(NNC(=S)Nc2ccccc2)cc1  -0.446%
30. Cc1c(OCC(=O)NC(Cc2ccc(Cl)cc2)C(=O)O)ccc2c1oc(=O)c1ccccc12 (stereo not shown)  -0.0909%
31. O=C1S/C(=C\c2ccc(N3CCOCC3)o2)C(=O)N1Cc1c(F)cccc1Cl  0.112%
32. N#CC(Nc1ccccc1)c1ccccc1OCc1ccccc1 (stereo not shown)  0.346%
33. CC(C)(C)c1ccc(C(=O)Nc2ccc(NC(=O)c3ccco3)cc2)cc1  1.84%
34. COc1cccc(C2=CC(=O)CC(C)(C)C2)c1  2.16%
35. COc1ccc(C(=O)N/N=C(\Cc2ncc[nH]2)c2ccccc2)cc1  2.43%
36. Cc1cccc(N2CCN(Cc3oc(CO)cc(=O)c3O)CC2)c1C  2.79%
37. Cc1ccccc1C1NC(=S)NC2=C1C(=O)CCC2 (stereo not shown)  3.09%
38. COC(=O)c1ccc(CSc2nnc(Nc3cccc(OC)c3)s2)o1  3.75%
39. CCCN1C(=O)/C(=C/c2ccc(N3CCOCC3)cc2)NC1=S  3.78%
40. CN1CCc2c(sc3c2c(=O)n(-c2ccc(Cl)cc2)c2nncn32)C1  4.11%
41. Cc1ccnc(NS(=O)(=O)c2ccc(NC(=O)C(C)(C)C)cc2)n1  4.11%
42. CCOc1ccc(NS(=O)(=O)c2cc3c(cc2C)N(C)CCO3)cc1  4.24%
43. CCOC(=O)CN1NC2(CCC(C)CC2)NC1=S (stereo not shown)  4.61%
44. COC(=O)C12CC3CC(C1)CC(n1cnc(Cl)n1)(C3)C2  4.79%
45. C[C@H](NC(=O)c1ccc(Cl)cc1)C(=O)NCCc1ccc(S(N)(=O)=O)cc1  5.4%
46. C(=N\Nc1nnnn1-c1ccccc1)/c1ccncc1  6.33%
47. Cc1cc(O)cc2c(=O)c3ccccc3sc12  7.03%
48. COc1ccc(C(=O)c2ccc(OC)cc2OC)cc1  7.15%
49. O=C(O)COc1ccc(Cl)cc1Cl  7.53%
50. CCc1ccccc1NC(=O)CN1CCN(C(=O)CN2C(=O)NC3(CCCC3)C2=O)CC1  7.54%
51. CC1=C(C(=O)OCC(C)C)C(c2cccs2)NC(=S)N1 (stereo not shown)  8.13%
52. CCOc1ccc2ccccc2c1/C=N\NC(=O)c1ccc([N+](=O)[O-])cc1  8.5%
53. O=C(CCC(=O)N1CCN(S(=O)(=O)c2ccc3ccccc3c2)CC1)Nc1cc(Cl)cc(Cl)c1  8.53%
54. Cc1cccnc1-n1c(-c2ccco2)nc2ccccc2c1=O  8.61%
55. Cc1nc(N2CCOCC2)nc(N2CCCCC2)c1[N+](=O)[O-]  10.2%
56. COc1ccc(/C=C/c2ccccc2)cc1[C@H]1[C@@H]2C=CCC[C@@]2(C)C(=O)N1Cc1ccccc1  10.4%
57. CC(C)NC(=S)NN=C1c2ccccc2-c2ccccc21  10.6%
58. COc1ccc(C(=O)NCCS(=O)(=O)NCc2ccco2)cc1  10.8%
59. CCOC(=O)c1sc(NC(=S)NC(=O)C2CC2)cc1C  10.9%
60. Cc1cccc(CN2CCN(c3ccc(Cl)cc3)CC2)c1  11%
61. Cc1ccc(S(=O)(=O)N2CCCOC2CNC(=O)C(=O)NCCC2=CCCCC2)cc1 (stereo not shown)  11%
62. CCCCn1c(C(C)O)nc2ccccc21 (stereo not shown)  11%
63. CN(C)c1cccc(C(=O)OCC(=O)Nc2nccs2)c1  11.2%
64. CC(C)C(NC(=O)c1ccco1)C(=O)NCC(c1ccco1)N(C)C (stereo not shown)  12.5%
65. CC(OC(=O)C1CC=CCC1C(N)=O)C(Cl)=C(Cl)Cl (stereo not shown)  12.5%
66. CCCCN(CC)C(=O)c1cccc(Cl)c1  13.1%
67. COc1cc2c(=O)n(Cc3ccccc3)c(=O)n(CC(=O)C(C)(C)C)c2cc1OC  13.8%
68. CCCNC(=O)Cn1cnc2sc(C(=O)N3CCC4(CC3)OCCO4)c(C)c2c1=O  13.9%
69. CN(C)c1cccc(C(=O)Nc2cccc(S(=O)(=O)NC3=NCCC3)c2)c1  14.3%
70. Cc1ccc2nc(N3CCN(c4cccc(C)c4C)CC3)c3nnnn3c2c1  14.4%
71. COc1ccccc1Nc1nc(N(C)c2ccccc2)nc(N)c1[N+](=O)[O-]  14.4%
72. Cc1cc(N)ccc1-c1cc2ccccc2oc1=O  14.5%
73. CCc1nc2nc(C)c(NS(=O)(=O)c3ccc(Cl)cc3)c(=O)n2[nH]1  14.7%
74. COc1ccc(N(CC(=O)NN=C2CCN(C)CC2)S(=O)(=O)c2ccc(NC(C)=O)cc2)cc1  15.1%
75. COc1ccc(-c2ccc(C(=O)O)o2)c([N+](=O)[O-])c1  15.2%
76. COc1cc(/C=N/NC(=O)CCc2c(C)n[nH]c2C)cc(OC)c1OC  15.6%
77. O=c1[nH]c(=S)n(-c2ccccc2Cl)c(O)c1C=NCCN1CCNCC1  16.1%
78. CN(C)C(=O)CN1C(=O)NC2(CCc3ccccc32)C1=O (stereo not shown)  16.7%
79. C=CCn1c(SCC(=O)Nc2ccc(C(=O)OCC)cc2)nnc1-c1cccs1  16.7%
80. C=CCN(C(=O)CNS(=O)(=O)c1ccccc1)C(C(=O)NCCOC)c1ccncc1 (stereo not shown)  17.4%
81. COC(=O)N/N=C(C)\C=C\c1ccco1  19%
82. Cc1cc(C(=O)NNC(=S)NCc2ccco2)nn1C  19.1%
83. Cc1ccc(C(=O)Nc2nnc(S(=O)(=O)N3CCC(C)CC3)s2)cc1  21.8%
84. FC(F)(F)c1ccc(Cl)c(-n2c(-c3ccco3)n[nH]c2=S)c1  22.2%
85. O=c1[nH]c(CSc2ncc(C(F)(F)F)cc2Cl)nc2ccccc12  23.8%
86. CCOC(=O)c1sc(=S)n(-c2ccccc2)c1N(C(C)=O)C(C)=O  27.1%
87. CC(=O)O.COc1c(O)ccc(C2NC(=O)NC(C)=C2C(=O)Nc2ccccc2C)c1[N+](=O)[O-] (stereo not shown)  31.9%
88. Cc1cc(=O)c(C(=O)OC(C)C(=O)NC(N)=O)nn1-c1ccc(Cl)cc1 (stereo not shown)  36.4%
